# Measured values from PubChem BioAssay AID1240 (Sanford-Burnham Center for Chemical Genomics, 2008).
# Screen size: about 50,000 compounds; about 800 (1.6%) showed an effect of 50% or more. The list shows a part of the results.
# Biological target: Bcl-2-like protein 10 (Homo sapiens) (UniProt Q9HD36)
# Test: TR3 peptide-Bcl-B binding displacers, biochemical primary FP assay, phenotype converters (AID 1240);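 also: 0% = Bcl-B with tracer peptide and DMSO and 100% = tracer peptide lacking Bcl-B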
# Conditions: GST-Bcl-B / FITC-TR3 peptide fluorescence polarization; stronger effect = higher value; compound at 3.75 mg/L
# Sequence of UniProt Q9HD36 (Q9HD36 whole entry, looked up): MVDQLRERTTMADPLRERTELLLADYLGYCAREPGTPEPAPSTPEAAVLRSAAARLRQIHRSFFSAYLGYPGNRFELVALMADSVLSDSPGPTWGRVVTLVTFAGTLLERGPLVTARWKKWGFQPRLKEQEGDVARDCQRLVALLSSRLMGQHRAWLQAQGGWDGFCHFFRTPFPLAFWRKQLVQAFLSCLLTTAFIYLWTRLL
row,SMILES,displacement
1,O=C(/C=C/c1ccc2c(c1)OCO2)Nc1c(F)c(F)c(F)c(F)c1F,-7.3%
2,COc1cccc(C2Nc3cc(C)c(C)cc3NC3=C2C(=O)CC(C)(C)C3)c1OC (stereo not drawn),4%
3,CC1CCN(CCCCOc2ccc(Cl)cc2)CC1,-11.7%
4,CN(C)CCCNC(=O)c1ccc(F)cc1,-1.5%
5,COc1ccc(OC)c(NC(=O)C2c3ccccc3Oc3ccccc32)c1,14.1%
6,CC1=C(C(=O)Nc2ccccc2)C(c2cc(C)cs2)NC(=O)N1 (stereo not drawn),-3.6%
7,O=C(c1ccccc1F)N(c1ccccc1)C1C=CS(=O)(=O)C1 (stereo not drawn),-5.7%
8,O=C(/C=C/c1ccc(F)cc1)Nc1ccc(F)cc1,10.1%
9,CCOc1ccccc1NC(=O)CN(c1ccccc1OC)S(=O)(=O)c1ccccc1,-4.3%
10,Cc1cccc(Nc2nc(Nc3cccc(C)c3)nc(SC(=S)N3CCOCC3)n2)c1,-2.7%
11,O=C(Nc1ccc(Br)cc1)C1c2ccccc2Oc2ccccc21,-14.2%
12,CCC(C)(C)C1CCc2c(sc(NC(=O)/C=C/C(=O)O)c2C(N)=O)C1 (stereo not drawn),2.4%
13,O=C(CC1Sc2ccc(C(F)(F)F)cc2NC1=O)Nc1ccc(I)cc1 (stereo not drawn),-23.7%
14,O=C(Nc1ccccc1C(=O)O)c1ccc(NC(=O)C(c2ccccc2)c2ccccc2)cc1,4.8%
15,O=C(/C=C/Nc1ccccn1)c1ccc(Br)cc1,3%
16,CC1=NN(C(=O)OC(C)(C)C)C(O)(c2ccncc2)C1 (stereo not drawn),8.1%
17,CCOC(=O)c1c(-c2ccccc2)oc2ccc(OC(=O)C(C)(C)C)cc12,10.8%
18,O=C1C2C(C(=O)N1c1ccncc1)C1C=CC2C12CC2 (stereo not drawn),-9.1%
19,COC(=O)c1sccc1NC(=O)/C=C/c1cccs1,-4.4%
20,COc1cccc(-c2nc(-c3ccccc3)c(-c3cc([N+](=O)[O-])ccc3C)[nH]2)c1OC,5.2%
21,COc1ccc(NC(=O)COc2cccc(C)c2)c(OC)c1,-4.5%
22,C=CCN1C(=O)/C(=C\c2ccccc2Cl)SC1=S,16.1%

row,SMILES,displacement
1,Cc1ccc(NC(=O)C(=O)NCCc2ccc(Cl)cc2)cc1,-3.5%
2,Cc1nc(-c2ccccc2)sc1C(=O)Nc1cccc(-c2cn3ccccc3n2)c1,8.5%
3,CCC1=NN2C(=N)/C(=C/c3cn(Cc4ccc(F)cc4)c4ccccc34)C(=O)N=C2S1,30.8%
4,CCC(=O)Nc1sc2c(c1C(=O)Nc1cccc3ccccc13)CCC2,-10.9%
5,C=CCN1C(=O)/C(=C\c2cc3c(cc2Cl)OCO3)C(=O)NC1=S,-2.5%
6,CCOc1cc(C(=O)Nc2ccccc2Br)cc(OCC)c1OCC,3.1%
7,CCN(CC)CCCOc1ccccc1OC,-0.5%
8,CCOC(=O)c1c(NC(=O)c2ccc(Cl)c([N+](=O)[O-])c2)sc(C(=O)Nc2ccccc2C(F)(F)F)c1C,-6%
9,CCOn1c(=O)c(C)[n+]([O-])c2ccccc21,14.9%
10,CCOc1ccc(N(CC(=O)N2CCCCC2)S(=O)(=O)c2ccc(Br)cc2)cc1,0.6%
11,O=C(NCCCNc1ccc([N+](=O)[O-])cc1Cl)c1ccccc1Cl,-7.6%
12,COc1cccc(C(=O)Nc2sc3c(c2C(N)=O)CCC(C)C3)c1 (stereo not drawn),6%
13,O=C(CSc1nsc(SCC(=O)C2CC2)n1)C1CC1,5.9%
14,O=C1CC(=O)N(c2cccc(Cl)c2)N1,18.8%
15,CCC1(C)CC(CCNCc2ccc(F)cc2)(c2ccc(OC)cc2)CCO1 (stereo not drawn),-10.9%
16,CCc1ccccc1N(CC(=O)Nc1cc(C)ccc1C)S(C)(=O)=O,-12.2%
17,CCCC(=O)Nc1cccc(-c2cc3ccccc3oc2=O)c1,7.8%
18,CCOC(=O)C(=CNc1cc(Cl)ccc1OC)C(=O)OCC,10.6%
19,Cc1sc(NC(=O)/C=C/c2ccccc2)c(C(=O)OC(C)C)c1C,12.9%
20,COc1ccc(OCc2nc(-c3cccnc3)no2)cc1,0.8%
21,CCOC(=O)C1=C(C)N=c2s/c(=C\c3cc4c(cc3Br)OCO4)c(=O)n2C1c1ccc(OC)cc1 (stereo not drawn),1.9%
22,CS(=O)(=O)N(CC(O)Cn1c2ccc(Cl)cc2c2cc(Cl)ccc21)c1ccccc1 (stereo not drawn),6.9%

row,SMILES,displacement
1,CSc1ccccc1C(=O)O/N=C1\CCCc2c1ccc(O)c2C,-4.1%
2,COCCNC(=O)Nc1ccc2nc3c4ccccc4c4ccccc4c3nc2c1,3.9%
3,COc1ccc(/C(C)=N\N2CCN(Cc3ccc(Cl)cc3)CC2)cc1OC,11.4%
4,COc1ccc(OC)c(C2C(C(=O)OCCc3ccccc3)=C(C)NC3=C2C(=O)CC(C)(C)C3)c1 (stereo not drawn),-10.3%
5,O=c1c2ccccc2c(=O)c2c1c(O)cc1sc3ccccc3[nH]c12,11%
6,COc1ccccc1-c1c(C(F)(F)F)oc2cc(OC(=O)c3ccccc3C)ccc2c1=O,16.9%
7,C=CCOc1ccc(/C=C2\C(=O)C(C(=O)OC)=C(C)N2c2ccc(F)cc2)cc1,127%
8,CCCOC(=O)c1ccc(NC(=S)Nc2ccc(F)cc2)cc1,2.8%
9,O=C(Nc1ccccc1C(=O)NCCc1ccccc1)c1ccco1,-2.8%
10,CCOC(=O)c1c(NC(=O)COc2ccc(Br)c(C)c2)sc2c1CCC2,17.3%
11,CCC(Sc1nnc2c3ccccc3n(C)c2n1)C(=O)Nc1ncccc1Cl (stereo not drawn),13.2%
12,CCn1cc(C(=O)NN)c(=O)c2cc(F)c(N3CCCCC3)cc21,17.4%
13,Cc1ccc(OCC(=O)Nc2cc(C)ccc2C)cc1,8.8%
14,CCOc1ccccc1NC(=O)c1c(NC(=O)c2ccccc2)sc2c1CCC2,-5.4%
15,Ic1cccc(-c2nnc3ccc4ccccc4n23)c1,-6.9%
16,CCOC(=O)CCN1C(=O)/C(=C/c2ccc(Cl)cc2Cl)SC1=S,38.1%
17,Cc1ccc(C(C)C)c(OCC(=O)Nc2ccc(-c3nc4ncccc4o3)cc2)c1,3.1%
18,N#Cc1c(/N=C/c2cc(Br)cc(I)c2O)sc2c1CCCC2,18.9%
19,COc1ccc(N2C(=O)/C(=C/c3ccc(-c4ccc(C(=O)O)cc4)o3)C(=O)NC2=S)cc1,-28.2%
20,CC(C)CCn1c(COc2ccccc2)nc2ccccc21,-15.5%
21,COc1cc(-c2cc(C(F)(F)F)n3ncc(C(=O)NCc4cccnc4)c3n2)cc(OC)c1OC,4.3%
22,CCOC(=O)c1c(NC(=S)NCc2ccccc2)sc2c1CCC2,21.3%

row,SMILES,displacement
1,COC(=O)C1=NN(C(=O)c2ccccc2)C(O)(c2ccc(Cl)cc2)C1 (stereo not drawn),2.3%
2,COC(=O)C1=C(C)NC(=O)/C1=C\c1ccc(OC)cc1,5.9%
3,COc1ccc(N(CC(=O)N2CCCC2)S(C)(=O)=O)cc1Cl,-5.6%
4,CCOC(=O)c1c(NC(=O)c2cc(-c3ccccc3)nc3ccccc23)sc(C(N)=O)c1C,1.7%
5,Cc1cc(Br)ccc1N1C(=O)c2ccc(S(=O)(=O)c3ccc(C(=O)O)cc3)cc2C1=O,7%
6,COC(=O)c1c(NC(=O)c2ccncc2)sc2c1C(C(=O)OC)CC2 (stereo not drawn),32%
7,O=C(N/N=C/c1cccs1)c1ccc([N+](=O)[O-])cc1Cl,-0.3%
8,COc1cc2c(cc1NC(=O)c1ccccc1OC)oc1ccccc12,24%
9,Cc1ccc(OCCc2c(C)n[nH]c2C)c(Cl)c1,-17.1%
10,CC(C)(C)C1(O)CC(c2ccccc2)=NO1 (stereo not drawn),18.6%
11,O=C(Nc1ccc(Cl)c(Cl)c1)C(=O)NC1CCCC1,2.1%
12,O=C(NC1C2CC3CC(C2)CC1C3)c1ccc(I)cc1 (stereo not drawn),9.4%
13,O=C(Nc1ccc(F)cc1F)c1cc(-c2ccccc2)nc2ccccc12,-10.4%
14,Cc1cc(NS(=O)(=O)c2ccc(Nc3nc(-c4ccncc4)cs3)cc2)no1,10.4%
15,COc1ccc(C2=C/C(=C/c3ccc(OC)cc3OC)C(=O)O2)cc1,144%
16,Cc1cccc(/C(N)=N/OC(=O)COc2ccc(Br)cc2)c1,3.2%
17,CCOC(=O)c1ccc(-c2ccc(C(=O)Nc3cccc(-c4nc5ncccc5o4)c3C)o2)cc1,26.2%
18,COc1cccc2sc(NC(=O)c3ccc(S(=O)(=O)N4CCCCC4)cc3)nc12,3.1%
19,COc1ccc(C)cc1NC(=O)/C=C/c1ccc(Cl)cc1Cl,-7.3%
20,CCOc1ccc2nc(SCC(=O)Nc3cc(Cl)ccc3Cl)sc2c1,3.4%
21,Cc1ccccc1C(=O)NNC(=O)C(C)C,-10.9%
22,Cc1cc(C)c(S(=O)(=O)NCC#N)c(C)c1,-9.7%

row,SMILES,displacement
1,COc1ccc(Cl)cc1C(=O)Nc1ccc(S(=O)(=O)NC(C)=O)cc1,3.3%
2,O=C(NCCc1ccccc1)C1CC(=O)N(c2ccc(Br)cc2)C1 (stereo not drawn),-2.5%
3,Cc1c[n+]2ccsc2n1CCCS(=O)(=O)[O-],-7.9%
4,O=C1CC(NCc2ccc(F)cc2)C(=O)N1c1ccc(Cl)cc1 (stereo not drawn),-24.8%
5,O=C(Nc1ccc(Cl)cc1)O/N=C/c1ccc([N+](=O)[O-])cc1,-2.7%
6,COc1cc(/C=N/N2CCN(c3ccccc3)CC2)cc(OC)c1O,13.4%
7,COc1cc(NC(=O)c2cc(Br)ccc2OC)ccc1NC(=O)c1ccco1,-2.7%
8,O=C(NC(=S)Nc1ccc2oc(-c3cc(I)ccc3Cl)nc2c1)c1ccco1,12.6%
9,COc1cccc(/C=C2\SC(N3CCOCC3)=NC2=O)c1O,-11%
10,C=CCOC(=O)C1=C(C)N(CC)C(=O)NC1c1ccc([N+](=O)[O-])cc1 (stereo not drawn),16.7%
11,COc1ccccc1C/C(N)=N/OC(=O)COc1ccc(Br)cc1,5.9%
12,COc1ccc(/C=C2/SC(=O)N(CNc3ccc(I)cc3)C2=O)cc1,-0.6%
13,O=C(Nc1ccc(N2CCOCC2)cc1)C(c1ccccc1)c1ccccc1,-13%
14,COc1ccccc1N1CCN(C(=O)c2cc3n(n2)C(C(F)(F)F)CC(c2ccc(Cl)c(Cl)c2)N3)CC1 (stereo not drawn),11.5%
15,CCOc1ccccc1NC(=O)c1c(NC(=O)C(C)(C)C)sc2c1CCCC2,-8.4%
16,COc1ccc(S(=O)(=O)NCc2ccc3c(c2)OCO3)cc1[N+](=O)[O-],4.4%
17,CC(=O)NC1=NC(=O)/C(=C\c2ccc(-c3ccccc3[N+](=O)[O-])o2)S1,-4%
18,O=C1NC(=S)N(c2ccccc2)C(=O)/C1=C/c1ccc(Cl)cc1Cl,6.2%
19,O=C(NCCN1C(=O)c2ccccc2C1(O)c1ccc(Cl)cc1)Nc1ccccc1 (stereo not drawn),-5.8%
20,Cc1ccccc1OCC(=O)Nc1ccc(C(C)C)cc1,-6.6%
